This note sets out measurements from PMC4336329 (PLoS ONE, 2015).

Structures are written as SMILES. Among all 310,000 compounds or so, about 14,000 (4.5%) showed an effect of 50% or more. Effects have a minus sign here. The list shows a part of the results.
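Note: peak tail current of the secondary pulse compared with the same well before compound.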

This test deals with human ether-à-go-go-related gene (hERG) potassium channel (human, UniProt Q12809). Description: primary screen, population patch clamp on CHO cells stably expressing hERG.
human ether-à-go-go-related gene (hERG) potassium channel, sequence (Q12809 whole entry, looked up): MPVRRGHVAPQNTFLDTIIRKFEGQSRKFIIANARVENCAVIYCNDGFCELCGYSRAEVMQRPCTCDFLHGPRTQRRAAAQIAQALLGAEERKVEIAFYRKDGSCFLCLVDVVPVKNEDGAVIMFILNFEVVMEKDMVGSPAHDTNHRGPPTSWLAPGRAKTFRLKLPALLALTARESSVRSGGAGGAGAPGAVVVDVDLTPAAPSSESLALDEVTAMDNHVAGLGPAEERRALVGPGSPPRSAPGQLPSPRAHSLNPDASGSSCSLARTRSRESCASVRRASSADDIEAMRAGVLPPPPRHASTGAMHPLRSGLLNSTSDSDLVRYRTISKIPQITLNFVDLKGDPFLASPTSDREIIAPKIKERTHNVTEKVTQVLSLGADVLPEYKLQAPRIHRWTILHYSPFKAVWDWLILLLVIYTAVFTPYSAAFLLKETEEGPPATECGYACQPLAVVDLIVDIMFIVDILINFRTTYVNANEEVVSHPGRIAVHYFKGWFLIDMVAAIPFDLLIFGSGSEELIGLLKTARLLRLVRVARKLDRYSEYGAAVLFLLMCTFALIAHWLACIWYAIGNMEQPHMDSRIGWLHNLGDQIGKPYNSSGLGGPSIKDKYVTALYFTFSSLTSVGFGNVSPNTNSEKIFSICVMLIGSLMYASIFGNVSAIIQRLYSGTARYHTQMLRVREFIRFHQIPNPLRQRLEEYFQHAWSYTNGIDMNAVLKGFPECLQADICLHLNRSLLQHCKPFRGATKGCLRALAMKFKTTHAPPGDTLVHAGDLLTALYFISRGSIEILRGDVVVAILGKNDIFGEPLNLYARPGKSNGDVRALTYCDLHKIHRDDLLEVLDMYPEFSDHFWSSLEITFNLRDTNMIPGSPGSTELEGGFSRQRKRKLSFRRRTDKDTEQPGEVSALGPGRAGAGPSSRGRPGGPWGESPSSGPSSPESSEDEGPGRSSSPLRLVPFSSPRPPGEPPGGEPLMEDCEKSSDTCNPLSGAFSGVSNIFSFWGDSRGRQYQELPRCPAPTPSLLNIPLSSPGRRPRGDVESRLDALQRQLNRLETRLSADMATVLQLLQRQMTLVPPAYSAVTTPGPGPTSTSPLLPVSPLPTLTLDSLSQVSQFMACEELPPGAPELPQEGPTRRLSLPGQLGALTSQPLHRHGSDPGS
Turning to `Cc1ccc(/C=N/NC(=O)c2ccncc2)o1`, the “hERG current change (%, negative = inhibition) at 10uM” value turned out to be 2.31%.
As for `C=CCNC(=O)c1ccc(N(CC=C)S(C)(=O)=O)cc1`, the figure is -1.41%.
Then `O=C(CN1CCN(S(=O)(=O)c2ccc(Cl)cc2)CC1)NC1CCCC1`, with -50.2%; and `O=C(CC1SC(=Nc2ccccc2)N(CCCCO)C1=O)NCc1ccccc1` (centres unmarked), with -36.7%; and `c1csc(-c2noc(CN3CCOCC3)n2)c1`, with 17.1%.
For the molecule `CC(=O)c1ccc(NC(=O)CCCC(=O)c2ccccc2)cc1`, the “hERG current change (%, negative = inhibition) at 10uM” value was 12.6%.
Then `CCCNC(=O)COC(=O)c1cc(-c2ccc(OC)cc2)nc2ccccc12`, with 4.28%.
With `CC1CC(C)CN(S(=O)(=O)c2ccccc2[N+](=O)[O-])C1` (centres unmarked), the “hERG current change (%, negative = inhibition) at 10uM” value is reported as -10.2%.
With `CCCCCCCCOC(=O)c1ccc(N)cc1`, the “hERG current change (%, negative = inhibition) at 10uM” value is 10.2%.
As for `CCn1cc(Br)c(C(=O)Nc2cccc(SC)c2)n1`, the figure is -9.93%; as for `CCN1CCN(Cc2ccc(NC(=O)Nc3cccs3)cc2)CC1`, 10.1%; as for `O=C(CN1CCN(c2ccccn2)CC1)Nc1ccc2ccccc2c1`, -43.9%.
Then `O=C(c1cccc(S(=O)(=O)Nc2cccc(C(F)(F)F)c2)c1)N1CCCCC1`, with -7.67%.
As to `Cc1ccc(C)c(S(=O)(=O)NCC(c2ccc3c(c2)OCO3)N2CCOCC2)c1` (centres unmarked), the “hERG current change (%, negative = inhibition) at 10uM” value is -22.4%.
As for `Cc1nc(N2CCOCC2)c(C#N)c(C)c1Br`, the figure is -8.78%; as for `Cl.O=C(CCN1CCN(C/C=C/c2ccccc2)CC1)Nc1ccccc1Cl`, -76.4%; as for `C=CCn1c2ccccc2c2nnc(SC(CC)C(=O)Nc3sc4c(c3C#N)CCCC4)nc21` (centres unmarked), 18.8%.
Then `CCOc1ccc(N(CC(=O)Nc2ccc(F)c(F)c2)S(=O)(=O)c2c(C)noc2C)cc1`, with -9.69%.
Then `CC(C)(C)c1cc(C(=O)O)n[nH]1`, with -5.87%; and `COc1ccc(N/C=C2\C(=O)CCc3c2oc2cc(Cl)c(O)c(Cl)c32)cc1`, with 19.4%.
Regarding `COc1ccc(-n2nc(C(=O)NCC(=O)N(C)Cc3ccccc3)c3ccccc3c2=O)c(OC)c1`, the “hERG current change (%, negative = inhibition) at 10uM” value amounted to 8.57%.
As for `CCCn1c(SCC(=O)NCc2ccc(OC)cc2)n[nH]c1=O`, the figure is -8.25%; as for `Cc1c(C=N)c(O)n(C)c(=O)c1C#N`, 10.8%.
As to `CCCCSP1(=S)NCCCO1` (centres unmarked), the “hERG current change (%, negative = inhibition) at 10uM” value was -14.8%.
As for `Cc1ccc(/C=N/NC(=O)Cn2nnc(N)n2)cc1`, the figure is 7.14%; as for `COc1ccc(OCC(=O)Nc2ccccc2C(=O)N2CCOCC2)cc1`, 10.1%.
